No constants are given. Whether binding was seen depends on the method and setting. For part of these data: Binding seen in cells or lysates may run through a third protein. Some binding calls cover weakened binding; strength is not graded here. Where a sequence is shown, tags or fusion partners need not be part of it.
T1: GFP-tagged Munc13-4, Q70J99
T1 chain: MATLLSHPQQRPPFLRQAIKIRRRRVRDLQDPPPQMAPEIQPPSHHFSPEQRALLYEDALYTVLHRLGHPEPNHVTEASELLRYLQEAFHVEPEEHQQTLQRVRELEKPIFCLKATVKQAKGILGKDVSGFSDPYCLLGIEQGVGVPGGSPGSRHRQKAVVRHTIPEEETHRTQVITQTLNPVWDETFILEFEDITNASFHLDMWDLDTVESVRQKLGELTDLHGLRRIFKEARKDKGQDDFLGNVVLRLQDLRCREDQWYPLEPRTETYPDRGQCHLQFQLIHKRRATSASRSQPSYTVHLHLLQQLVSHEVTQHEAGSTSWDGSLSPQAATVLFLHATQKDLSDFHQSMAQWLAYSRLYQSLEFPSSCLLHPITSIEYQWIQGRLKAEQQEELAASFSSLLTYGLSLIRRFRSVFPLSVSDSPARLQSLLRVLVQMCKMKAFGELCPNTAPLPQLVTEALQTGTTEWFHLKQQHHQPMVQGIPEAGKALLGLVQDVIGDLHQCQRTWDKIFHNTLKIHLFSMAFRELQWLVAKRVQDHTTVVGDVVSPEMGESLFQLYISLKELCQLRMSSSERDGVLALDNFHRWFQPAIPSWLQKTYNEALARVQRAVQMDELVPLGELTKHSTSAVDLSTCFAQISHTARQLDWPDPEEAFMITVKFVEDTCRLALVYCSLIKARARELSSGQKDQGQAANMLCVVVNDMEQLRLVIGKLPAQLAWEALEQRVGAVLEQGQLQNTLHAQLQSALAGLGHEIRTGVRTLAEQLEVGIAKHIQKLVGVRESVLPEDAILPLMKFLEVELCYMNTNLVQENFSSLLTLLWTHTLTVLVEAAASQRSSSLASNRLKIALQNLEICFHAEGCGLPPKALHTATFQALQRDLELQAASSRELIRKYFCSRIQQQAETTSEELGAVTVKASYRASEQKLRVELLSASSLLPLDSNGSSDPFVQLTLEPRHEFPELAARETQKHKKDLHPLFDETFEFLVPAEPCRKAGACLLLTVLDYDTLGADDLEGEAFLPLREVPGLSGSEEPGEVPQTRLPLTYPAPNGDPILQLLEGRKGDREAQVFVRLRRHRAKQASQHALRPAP

The chains behind the UniProt entries cited, without tags or fusion partners.
UniProt Q9Y4G2: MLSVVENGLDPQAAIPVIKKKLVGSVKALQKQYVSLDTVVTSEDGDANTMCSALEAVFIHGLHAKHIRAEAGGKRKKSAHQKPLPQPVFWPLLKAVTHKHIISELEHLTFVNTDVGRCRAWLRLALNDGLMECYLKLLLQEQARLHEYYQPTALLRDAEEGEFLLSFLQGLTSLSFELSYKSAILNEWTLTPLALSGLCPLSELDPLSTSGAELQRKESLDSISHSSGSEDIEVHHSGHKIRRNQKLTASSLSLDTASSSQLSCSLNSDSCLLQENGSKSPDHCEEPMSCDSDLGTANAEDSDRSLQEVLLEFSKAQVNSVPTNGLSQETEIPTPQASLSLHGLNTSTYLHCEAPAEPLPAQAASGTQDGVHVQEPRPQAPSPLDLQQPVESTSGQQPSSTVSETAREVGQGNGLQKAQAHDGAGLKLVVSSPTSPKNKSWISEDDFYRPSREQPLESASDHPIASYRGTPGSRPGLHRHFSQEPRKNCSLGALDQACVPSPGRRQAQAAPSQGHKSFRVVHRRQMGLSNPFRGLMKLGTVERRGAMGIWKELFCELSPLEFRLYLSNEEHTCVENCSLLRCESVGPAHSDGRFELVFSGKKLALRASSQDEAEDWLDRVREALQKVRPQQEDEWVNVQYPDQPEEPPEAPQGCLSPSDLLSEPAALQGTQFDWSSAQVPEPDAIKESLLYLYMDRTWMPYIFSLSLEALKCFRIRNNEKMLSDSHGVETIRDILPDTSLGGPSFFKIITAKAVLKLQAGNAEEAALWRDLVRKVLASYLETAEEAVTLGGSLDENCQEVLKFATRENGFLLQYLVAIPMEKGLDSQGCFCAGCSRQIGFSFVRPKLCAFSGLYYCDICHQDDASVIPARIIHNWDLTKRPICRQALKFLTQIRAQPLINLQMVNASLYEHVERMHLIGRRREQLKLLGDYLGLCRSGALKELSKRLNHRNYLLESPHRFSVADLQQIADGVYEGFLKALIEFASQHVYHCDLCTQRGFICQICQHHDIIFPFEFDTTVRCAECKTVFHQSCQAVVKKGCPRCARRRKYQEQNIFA

T2: GFP-tagged Munc13-4 (UniProt Q70J99)
T2 sequence: T1 chain

B1: twin-Strep-tagged Munc13-4 (protein, UniProt Q70J99 1-1090)
chain: T1 chain
B2: syntaxin7 (STX7), O15400 1-261 (protein)
chain: MSYTPGVGGDPAQLAQRISSNIQKITQCSVEIQRTLNQLGTPQDSPELRQQLQQKQQYTNQLAKETDKYIKEFGSLPTTPSEQRQRKIQKDRLVAEFTTSLTNFQKVQRQAAEREKEFVARVRASSRVSGSFPEDSSKERNLVSWESQTQPQVQVQDEEITEDDLRLIHERESSIRQLEADIMDINEIFKDLGMMIHEQGDVIDSIEANVENAEVHVQQANQQLSRAADYQRKSRKTLCIIILILVIGVAIISLIIWGLNH
B3: syntaxin8 (STX8), Q9UNK0 1-236 (protein)
chain: MAPDPWFSTYDSTCQIAQEIAEKIQQRNQYERKGEKAPKLTVTIRALLQNLKEKIALLKDLLLRAVSTHQITQLEGDRRQNLLDDLVTRERLLLASFKNEGAEPDLIRSSLMSEEAKRGAPNPWLFEEPEETRGLGFDEIRQQQQKIIQEQDAGLDALSSIISRQKQMGQEIGNELDEQNEIIDDLANLVENTDEKLRNETRRVNMVDRKSASCGMIMVILLLLVAIVVVAVWPTN
B4: vesicle transport through interaction with t-SNAREs homolog (VTI1B), Q9UEU0 1-232 (protein)
chain: MASSAASSEHFEKLHEIFRGLHEDLQGVPERLLGTAGTEEKKKLIRDFDEKQQEANETLAEMEEELRYAPLSFRNPMMSKLRNYRKDLAKLHREVRSTPLTATPGGRGDMKYGIYAVENEHMNRLQSQRAMLLQGTESLNRATQSIERSHRIATETDQIGSEIIEELGEQRDQLERTKSRLVNTSENLSKSRKILRSMSRKVTTNKLLLSIIILLELAILGGLVYYKFFRSH
B5: HOPS complex subunit VPS41 (protein, UniProt P49754 1-854)
chain: MAEAEEQETGSLEESTDESEEEESEEEPKLKYERLSNGVTEILQKDAASCMTVHDKFLALGTHYGKVYLLDVQGNITQKFDVSPVKINQISLDESGEHMGVCSEDGKVQVFGLYSGEEFHETFDCPIKIIAVHPHFVRSSCKQFVTGGKKLLLFERSWMNRWKSAVLHEGEGNIRSVKWRGHLIAWANNMGVKIFDIISKQRITNVPRDDISLRPDMYPCSLCWKDNVTLIIGWGTSVKVCSVKERHASEMRDLPSRYVEIVSQFETEFYISGLAPLCDQLVVLSYVKEISEKTEREYCARPRLDIIQPLSETCEEISSDALTVRGFQENECRDYHLEYSEGESLFYIVSPRDVVVAKERDQDDHIDWLLEKKKYEEALMAAEISQKNIKRHKILDIGLAYINHLVERGDYDIAARKCQKILGKNAALWEYEVYKFKEIGQLKAISPYLPRGDPVLKPLIYEMILHEFLESDYEGFATLIREWPGDLYNNSVIVQAVRDHLKKDSQNKTLLKTLAELYTYDKNYGNALEIYLTLRHKDVFQLIHKHNLFSSIKDKIVLLMDFDSEKAVDMLLDNEDKISIKKVVEELEDRPELQHVYLHKLFKRDHHKGQRYHEKQISLYAEYDRPNLLPFLRDSTHCPLEKALEICQQRNFVEETVYLLSRMGNSRSALKMIMEELHDVDKAIEFAKEQDDGELWEDLILYSIDKPPFITGLLNNIGTHVDPILLIHRIKEGMEIPNLRDSLVKILQDYNLQILLREGCKKILVADSLSLLKKMHRTQMKGVLVDEENICESCLSPILPSDAAKPFSVVVFHCRHMFHKECLPMPSMNSAAQFCNICSAKNRGPGSAILEMKK
B6: YKT6 (protein, UniProt O15498 1-198)
chain: MKLYSLSVLYKGEAKVVLLKAAYDVSSFSFFQRSSVQEFMTFTSQLIVERSSKGTRASVKEQDYLCHVYVRNDSLAGVVIADNEYPSRVAFTLLEKVLDEFSKQVDRIDWPVGSPATIHYPALDGHLSRYQNPREADPMTKVQAELDETKIILHNTMESLLERGEKLDDLVSKSEVLGTQSKAFYKTARKQNSCCAIM

Legend:
[1] = molecular target: GFP-tagged PLEKHM1 (from HEK293FT, immobilised) (UniProt Q9Y4G2); assay: pull-down; GFP-PLEKHM1 (or GFP) immobilised on GFP nanobody beads, incubated with the indicated concentrations of purified Munc13-4; SDS-PAGE, Imperial blue staining; both purified
[2] = molecular target: T1, GFP-tagged Munc13-4, Q70J99; assay: co-IP; lysates of BON cells expressing GFP or GFP-Munc13-4 precipitated with GFP nanobodies; western blotting of the pull-downs with antibodies to the partners; conditions: remark: other sources report otherwise
GFP-tagged Munc13-4 = molecular target: T2, GFP-tagged Munc13-4; assay: as above

Binder | binding [2] | binding (GFP-tagged Munc13-4) | further results
B1 |  |  | binding [1]: binds
B2 | binds |  | 
B3 | binds |  | 
B4 | binds |  | 
B5 |  | binds | 
B6 |  | no binding | 

Reference: PMC12425082
